The RNAGym collection of RNA variant scans (doi:10.1093/nar/gkz1192)
Read counts are not given, so values of variants with three or more changes are uncertain.

B1: CPEB3 Ribozyme (parent)
chain: UAACAGGGGGCCACAGCAGAAGCGUUCACGUCGCAGCCCCUGUCAGAUUCUGGUGAAUCUGCGAAUUCUGCUGUAUAUCUC

Variants of: B1
Experiment: self-cleavage, relative activity (ratio to wild type); higher = more cleavage; in vitro, sequencing
Outline: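 Libraries of CPEB3 self-cleaving ribozyme mutants came from rounds of error-prone PCR and carried barcodes, which DNA sequencing matched to variants. In vitro transcription used T7 RNA polymerase at 37°C for 5 hours, with a further 15 min in DNase I before EDTA stopped the reaction; the ribozymes cleaved during both steps. The RNA was reverse transcribed with template switching and sequenced on Illumina. Relative activity is the cleaved/total read fraction of a variant divided by that of the unmutated ribozyme, averaged over three batches with at least 5 reads.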

Variant	self-cleavage
U1C C4G U43C	0.72
U1C G9C U51A U78A	0.41
U1C A13G A20G U43A U66A	0.18
U1C A5G G7A G22C U26C A56C A57G	0.05
U1G A13U A21U	0.41
U1G A3G A20G C40U A57G	0.49
U1C A35G U43C A56G G70U U80C	0.24
U1C A28G A64G	0.37
A2C U67A U72A	0.22
U1C A28G U41A	0.36
U1C A20U U41A U43A U60C	0.07
A2G A3G G46A	0.5
U1C A5U C23U A28U U58C U69C U78C	0.07
A2G A15G A18G A45G	0.44
U1C A18U C40A U69G U72G	0.05
U1C U41C U54A U58C U67C	0.24
U1C U31A C39U A45U A64U	0.04
U1C A15U A56G	0.35
U1C A28U U41A C50U G52U U72C	0.06
U1C A18U A45U U51C	0.26
U1C U48C A77G	0.24
A2G A5U A21G U26A U54C	0.39
U1G U26A A35U C40U U72G	0.2
U1C A20G A45C	0.33

Variant	self-cleavage
U1C A13U A15G U26C	0.6
A2G A5G C40U U41G U43A U66C	0.12
U1C G9A U41A A45C	0.05
A2G A15U A20G G42A A45G U49A U60A	0.04
U1C C14U U43G U67C	0.17
U1C A64U U66C G70A	0.2
U1C G24C A65G U66C U69C	0.3
U1C A13U G46U U54A G63A U76C U80A	0.13
U1C C12U U26A U54C	1.14
U1C A15U U58C	0.24
A2C A13C A15U U51C U54G U60C	0.12
U1C G6U G30C U41C U51C	0.05
A2G A18U A28U U58C A65U	0.22
U1C A3G A13U C37A U58A U67C	0.07
U1C A15U U26A U31C A65G	0.25
U1C A21G U25C	0.42
U1C A13G A21G C37U C62U U72C	0.04
A2G A13U U41C	0.63
U1C A15C U26G U60C	0.44
A2G A5G A13G A28G U51G	0.56
U1C G6A A45G G73U U74A	0.58
U1C C11U U72A U76C	0.2
U1C G7C A18U A28G G33U G53C G73U	0.03
U1C A18C C37A U60C G73A	0.03

Variant	self-cleavage
U1C G46U A65G	0.12
U1C G33U U43C U69A	0.07
U1C A5G G8U A21G A45G U58A U67C	0.05
U1C A13G U41C U80C	0.97
U1C G42A A45U U60C	0.09
U1C G10C U25C A28G	0.07
A2G A13U U78C	0.69
A2G A3G A13U U31A U78C	0.68
U1C A20G G52A	0.91
U1C U25C G33A A47G U76G	0.05
U1C A18G U49A U72A A77U	0.19
U1C G9U U26C G55U A64U	0.05
U1C U54C U80G	0.64
U1C A15U C17U C34U A77G	0.24
U1C A45G A56G A64G	0.28
U1C A13G U41C A45G	0.61
A2C A15G U41A U43C A64G	0.1
U1C A3G A20G U31C U54C C62U U67C	0.09
U1C A18U U26C U80C	0.39
A2G A13U A20G U49C U67C	0.14
U1C U26C U43C U54A	1
U1C G30C U43C C71G	0.05
A2G A3G A28G U41C U48C	0.47
U1C A5G G6U A20C U26C U80C	0.02

Variant	self-cleavage
U1C A15G A20G U72A	0.09
U1C A21G A35G U49G	0.26
A2G A13U U31C A64U A65G U69C	0.27
U1C A18G C34U U41C U43A A56G U67C	0
A2C U26C U43A U80A	0.5
U1C A18G U60A U74C	0.26
U1C A13U A20G A35G A47G A57U U78C	0.2
U1C G9U C40U U60C U80C	0.27
U1C U25A C39A U43C A56G A65G	0.03
A2G A5U U26C U41C U74C	0.74
U1C U31A U41C A56G C81U	0.32
U1C C17G A20G U58C	0.24
U1C G19U U78A	0.38
U1C C14G A15U C23U	0.06
U1C A18G A20G C40U U51A U66C U80C	0.25
U1C A5U U60C	0.67
A2G A18G U69A	0.26
U1C A20G U31C A45G U48C	0.41
A2G A15G G63U U76C	0.73
U1C U49C U78C	0.29
U1C A56U A65G U76C	0.11
A2G A18U A28G	0
U1C A57G U66C	0.22
U1C A15U G42U U43A A45G U72C	0.05

Variant	self-cleavage
U1C C11U U25C A64U U76C A77U	0.19
A2C C11U G30A U54C A65G U78C	0.05
A2G A3G A18G U26C	0.64
U1C G7U U51G	0.42
U1G U69A C79U	1.05
U1C A15G G42U	0.17
U1C U60C A64G	0.35
U1C U31A A57G A65G	0.13
U1C U26C U48C	0.29
U1G A18U A56G	0.33
U1C C17G U49C	0.32
U1C U31A U48C U51C A65U	0.19
U1C G7C U69C	0.41
U1C A5U U31C A35C U41A U51A U54C	0.29
U1C U69C U78A	0.54
A2C U25C U49A G53A C62U	0.33
U1C U26C U43A	0.45
U1C U43C A64U U76C	0.2
U1C A13G A28C A57G G63C U72A	0.19
A2G A5G U31A U54C	0.14
U1C G10A A15G A57U U60C	0.07
U1C A18G U43C	0.51
A2G A5U A18G U49A	0.11
U1C C29U A57U	0.39

Variant	self-cleavage
U1C A15U U58A C59U	0.2
U1C A13U U31G A35G U43C U78C	0.8
U1C U41A A57G	0.07
A2G A5G C32A U60C A77G	0.3
U1G A45U U72C U80C	0.7
A2G A3G A18G C39A U43A	0.6
U1C A56C G70A	0.43
U1C G19U U80A	0.42
U1C A45G U66C U69C	0.16
A2G A5U C29A U60A U66A U74C	0.27
A2C A15G A20U U72C	0.14
U1C A45U U49C U54C	0.22
A2G A18U C23U U54A U69C	0.22
A2C A13C U43A G52A A77U U80C	1.22
A2G A15U A20G A28U	0.5
U1C A18U A64G C68G G73A	0.08
A2C A15U C38U U78C	0.34
U1C C44G U54A A64G	0.37
A2C C11A U69C	0.3
A2C A5U U69C U74A	0.58
U1C A13G U48C U60C C79U	0.36
U1C G6U A13U C44U A56U U76A U78C	0.04
A2G A13G U80A	0.8
U1C A35G A45G U49C U76C U78A	1.13

Variant	self-cleavage
U1C U26C U67C G70A U78C	0.16
U1C A3U C27U	0.08
U1C A18C A21G U78C	0.05
U1C A15U U26A U69C U72A	0.07
U1C A3G U66A	0.49
U1C G7U C14U A20U A45U U69C U80C	0.04
U1C A15G A21G U41A	0.52
U1C A13G U31C U69C	0.22
U1C A5G C17U A28U A35G C39U U60C	0.09
U1C G16A U25C C29U U49A	1.02
U1G A2G U41A	0.67
U1C C27U U72C U74C U76A	0.38
U1C U25G G53A U60C U66C	0.19
U1C C27G A56U U58A	0.17
U1C A64U U66G U80A	0.1
A2G A15U C17U A45C	0.3
U1C A5C U74C	1.06
U1C A18U U51C A64G U80C	0.42
U1C A15G U43A	0.72
A2C U26C G70A	0.28
A2G A5G A21G U25G U66C U80C	0.12
U1C A18G U26C	0.59
U1C A5C A64G U80C	1.04
